Out of some 230,000 compounds screened, about 1,500 (0.65%) were called active. Inconclusive means that the source gave no clear call. Such entries were picked first, then a sample of the others. Calls come from the whole dose curve; as a rule, active = well fitted inhibition curve with a large enough effect; inconclusive = small, poorly fitted or top-dose-only effect; inactive = no such curve, though single readings can be large or run the other way. Potencies beside an inconclusive call are fits to weak or partial responses and may not hold up.
biological target: Lethal(3)malignant brain tumor-like protein 1 (Homo sapiens) (UniProt Q9Y468); test: qHTS Assay for the Inhibitors of L3MBTL1; conditions: AlphaScreen L3MBTL1–H3K9me1 peptide binding; series mostly up to 57.1 µM; note: nearly all actives have a fitted effect of over 60% in size
UniProt Q9Y468, sequence (Q9Y468 whole entry, looked up): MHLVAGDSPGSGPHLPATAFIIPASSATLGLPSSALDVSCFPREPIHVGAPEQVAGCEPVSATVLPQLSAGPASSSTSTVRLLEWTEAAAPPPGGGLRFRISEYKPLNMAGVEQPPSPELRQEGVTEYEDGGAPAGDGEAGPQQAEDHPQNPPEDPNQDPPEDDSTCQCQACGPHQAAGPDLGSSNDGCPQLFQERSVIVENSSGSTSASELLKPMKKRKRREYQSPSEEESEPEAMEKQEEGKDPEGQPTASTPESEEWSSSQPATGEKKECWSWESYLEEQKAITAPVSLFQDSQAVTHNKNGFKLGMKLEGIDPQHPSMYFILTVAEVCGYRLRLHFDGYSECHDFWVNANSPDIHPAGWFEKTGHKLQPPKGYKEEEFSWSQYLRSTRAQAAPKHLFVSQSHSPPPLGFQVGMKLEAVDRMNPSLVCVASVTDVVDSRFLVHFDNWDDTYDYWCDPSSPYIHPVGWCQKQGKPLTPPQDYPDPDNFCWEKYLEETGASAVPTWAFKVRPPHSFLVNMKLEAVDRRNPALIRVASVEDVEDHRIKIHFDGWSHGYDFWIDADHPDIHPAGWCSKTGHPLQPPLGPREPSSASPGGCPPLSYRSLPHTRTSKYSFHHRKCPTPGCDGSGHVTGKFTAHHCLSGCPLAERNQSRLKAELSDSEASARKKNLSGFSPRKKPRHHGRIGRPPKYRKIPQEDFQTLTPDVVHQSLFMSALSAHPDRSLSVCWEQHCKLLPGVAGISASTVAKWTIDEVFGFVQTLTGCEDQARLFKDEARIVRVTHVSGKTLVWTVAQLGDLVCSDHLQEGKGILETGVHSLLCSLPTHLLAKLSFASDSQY
Description: The histone code is comprised of many post-translational modifications that occur mainly in histone tail peptides. The identity and location of these marks are read by a variety of histone binding proteins that are emerging as important regulators of cellular differentiation and development and are increasingly being implicated in numerous disease states. Small molecule probes that disrupt the interaction between histone binding proteins and chromatin would enable a systematic chemical biology study of proteins that read the histone code and could potentially reveal new targets for drug discovery. However, no such small molecules are known. This dearth of quality molecular probes can largely be attributed to the novelty of the target class and the lack of screening assays. This proposal details the development of the first high-throughput screening assay for the discovery of inhibitors of methyl-lysine binding proteins and how it can be be used to initiate a full-scale discovery effort for antagonists of histone binding proteins. Specifically, this work focuses on an AlphaScreen(tm)-based HTS assay for Malignant Brain Tumor (MBT) domain-containing proteins, which bind to the lower methylation states of lysine residues present in histone tail peptides.
To each well, 2 uL of L3MBTL1 protein (final 50 nM) and 1 uL biotinylated histone peptide monomethylated at Lys9 [b-AHA-H3(1-15)K9me1] (final 75 nM) was added using a nanoliter dispenser. Formation of a protein-peptide complex proceeded at room temperature for 30 min. A Kalypsys pin-tool was employed to transfer 23 nL of library compound solution in DMSO to each well. Cefsulodin, found in a pilot screen of the LOPAC library to be a weak inhibitor of L3MBTL1 binding, was used as an intraplate control with a 16-point titration in duplicate. Following a 30 min incubation of the protein-peptide complex with compounds at room temperature, a mixture of 40 ug/mL each streptavidin-coated donor and nickel chelate acceptor AlphaScreen beads (final 10 ug/mL) was added in a 1 uL dispense for a final volume of 4 uL. Plates were incubated, protected from the light for 30 min at room temperature. Microplates were then be read on an EnVision multilabel plate reader using the 1,536 plate HTS AlphaScreen aperture (excitation time 80 ms, measurement time 240 ms).
Potency is the fitted concentration of half-maximal effect; tags give direction and shape of the fitted curve.

Row | Structure (SMILES) | Potency
1 | CN(C)c1ccc(C(CNS(=O)(=O)c2ccc(F)c(F)c2)c2c[nH]c3ccccc23)cc1 (centres undefined) | inconclusive: 39.8 µM [inhibitor, single point]
2 | CCC(=S)/C=C1\Sc2ccccc2N1CCCS(=O)(=O)O | inconclusive: 31.6 µM [inhibitor, single point]
3 | CC(C)CNC(=O)C(=O)NCC1CCCN1S(=O)(=O)c1cccs1 (centres undefined) | inactive
4 | CN1CCC(N(C)S(=O)(=O)c2ccc(NC(=O)COc3ccc(F)cc3)cc2)CC1 | inconclusive: 28.2 µM [inhibitor, single point]
5 | O=C(CCc1nc2sc3c(c2c(=O)[nH]1)CCCC3)NCC(=O)Nc1ccccc1Br | inconclusive: 28.2 µM [inhibitor, single point]
6 | NC(N)=N/N=C/c1ccccc1OC(F)F | inconclusive: 0.891 µM [inhibitor, single point]
7 | Cc1cc(=O)c2cc3nc(-c4cccnc4)oc3c(Br)c2o1 | active: 31.6 µM
8 | O=C(C1=C(O)C(=O)N(c2ccccc2)C1c1ccc([N+](=O)[O-])cc1)c1cccs1 (centres undefined) | inconclusive: 8.91 µM [inhibitor, single point]
9 | CC1(C)CC2CC(C)(CN2c2ncnc3ccc(Br)cc23)C1 (centres undefined) | inconclusive: 0.224 µM [inhibitor, partial curve]
10 | CC1CC(C)CN(Cc2nc(N)nc(Nc3ccc4ccccc4c3)n2)C1 (centres undefined) | inconclusive: 28.2 µM [inhibitor, single point]
11 | CNc1ccc(Br)cc(C(=O)/C=C/c2cccc(Cl)c2Cl)c1=O | inconclusive: 10 µM [inhibitor, partial curve]
12 | CN(CC(=O)Nc1ccc(Cl)c(C(F)(F)F)c1)C(=O)c1ccc(N2CCOCC2)c([N+](=O)[O-])c1 | inactive
13 | C/C=C/Cn1c(N(C)Cc2ccccc2)nc2c1c(=O)[nH]c(=O)n2C | inconclusive: 39.8 µM [inhibitor, single point]
14 | CC(C)SCC(=O)Nc1ncc2c(n1)-c1ccccc1CC2 | inconclusive: 28.2 µM [inhibitor, single point]
15 | CC1=C/C(=C/N(C)C)C(=O)O1 | inconclusive: 28.2 µM [inhibitor, single point]
16 | O=C(Cn1ccnc1)c1ccc(O)c(O)c1 | inconclusive: 39.8 µM [inhibitor, single point]
17 | COc1ccc(C=C2c3ccccc3C(=O)c3ccccc32)c(OC)c1 | inconclusive: 35.5 µM [inhibitor, single point]
18 | O=C(c1cccc([N+](=O)[O-])c1)N1CCN(S(=O)(=O)/C=C/c2ccccc2)CC1 | inactive
19 | N#Cc1cc(-c2ccccc2)oc1/N=C/c1ccccc1O | inconclusive: 6.31 µM [inhibitor, single point]
20 | O=c1c2ccccc2nc(-c2ccccc2)n1Cc1ccccc1 | inactive
21 | COCCNc1nc(C)c(C(C)=O)s1 | inactive
22 | COc1ccc(-c2cnnc(N/N=C/C(C)=C/c3ccccc3)n2)cc1 | inconclusive: 0.708 µM [inhibitor, single point]

Row | Structure (SMILES) | Potency
23 | Cc1ccc(NC(=O)CSCC(=O)N(C)CC(=O)Nc2ccccc2C(F)(F)F)cc1 | inactive
24 | COc1ccc(N(CC(=O)N/N=C/c2ccco2)S(=O)(=O)c2ccccc2)cc1 | inconclusive: 28.2 µM [inhibitor, partial curve]
25 | CCCCOc1ccc(-c2c(C#N)c(N)nc(SCC(N)=O)c2C#N)cc1 | inconclusive: 5.62 µM [inhibitor, single point]
26 | CCOC(=O)C(=O)Nc1ccccc1C#N | inconclusive: 39.8 µM [inhibitor, single point]
27 | Cc1cc(N=Nc2ccc(Cl)cc2)cc(CN2CCCC2)c1O | inconclusive: 3.55 µM [inhibitor, full curve]
28 | Cc1ccccc1S(=O)(=O)c1c(C)cc(C)n(C)c1=O | inconclusive: 0.562 µM [inhibitor, partial curve, poor fit]
29 | O=C(OCC(=O)N1CCN(C(=O)c2ccco2)CC1)c1cncc(Br)c1 | inactive
30 | CCCSC1=N/C(=C\C=C\c2ccco2)C(=O)S1 | active: 5.62 µM
31 | O=C(COC(=O)CCC(=O)c1ccc(F)cc1)Nc1ccc(F)cc1F | inconclusive: 0.794 µM [inhibitor, full curve, poor fit]
32 | COc1ccc(C(NC(C)=O)c2ccc3cccnc3c2O)c(OC)c1 (centres undefined) | inconclusive: 31.6 µM [inhibitor, single point]
33 | CCOc1ccc(C2C(C#N)=C(N)SC(N)=C2C#N)cc1OC | inactive
34 | CC1=NN(c2ccccc2)C(=O)/C1=C/c1cccs1 | inconclusive: 22.4 µM [inhibitor, partial curve]
35 | Cc1cccc2cc(CN(Cc3ccco3)C(c3nnnn3CCc3ccccc3)C(C)C)c(=O)[nH]c12 (centres undefined) | inactive
36 | O=C(N[C@@H](Cc1ccccc1)C(=O)OCC(=O)N1CCOCC1)c1cccs1 | inconclusive: 0.794 µM [inhibitor, partial curve, poor fit]
37 | Cc1ccn2c(=O)nc(SCC(=O)NCc3ccccc3Cl)nc2c1 | inconclusive: 31.6 µM [inhibitor, single point]
38 | CCC(C)C(=O)N1c2ccccc2C(=C2SC(C(=O)OC)=C(C(=O)OC)S2)C(=S)C1(C)C (centres undefined) | inconclusive: 25.1 µM [inhibitor, partial curve]
39 | Nc1ccc(N2CCN(c3ccc(Cl)c(Cl)c3)CC2)cc1 | inconclusive: 39.8 µM [inhibitor, single point]
40 | CCOc1ccc(OCC)c(NC(=O)c2ccc(CNc3c(N4CCOCC4)c(=O)c3=O)cc2)c1 | inactive
41 | Cc1ccc(C2c3c(oc4ccc(Cl)cc4c3=O)C(=O)N2CCCN2CCOCC2)o1 (centres undefined) | inconclusive: 3.98 µM [inhibitor, full curve]
42 | O=[N+]([O-])c1ccc(C2CC(c3ccccc3)=Nc3ccccc3S2)cc1 (centres undefined) | inconclusive: 17.8 µM [inhibitor, partial curve]
43 | CCCCCc1ccc(OCCCC[n+]2cccc(C)c2)c(CCCCC)c1 | inactive
44 | S=C(NCCCN1CCOCC1)Nc1ccc(Cl)cc1Cl | inconclusive: 5.01 µM [inhibitor, single point]

— PubChem BioAssay AID485360 (National Center for Advancing Translational Sciences (NCATS), 2010)
